Experimental data: PubChem BioAssay AID1347073 (National Center for Advancing Translational Sciences (NCATS), 2019)
Hit rate of the full screen: of about 45,000 compounds, about 200 (0.44%) were called active. Roughly 7% stayed inconclusive and do not appear here. Calls follow the shape of the dose curve; as a rule, active = well fitted activation curve with a large enough effect; inconclusive = small, poorly fitted or top-dose-only effect; inactive = no such curve, though single readings can be large or run the other way. This is one part of the list.

experiment: qHTS of TDP-43 Inhibitors: NCGC Sytravon Library Screen; conditions: yeast TDP-43 toxicity rescue, BacTiter-Glo growth, 24 h; series mostly up to 46.1 µM; growth rescue (activation): at the top concentration; also: nearly all actives have a fitted effect of over 55% in size; as to growth rescue (activation): 0% is about no effect
Outline: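 TDP-43-expressing yeast, pregrown in raffinose, seeded at OD600 0.02 in galactose medium with compound for 24 hr at 30 deg C. Growth read by BacTiter-Glo luminescence, so rescue of toxicity appears as activation.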
Potency is read from the fitted curve at half-maximal effect.

| SMILES | growth rescue (activation) | Potency |
| --- | --- | --- |
| O=C(NCCN1CCOCC1)C1CC(=O)N(c2ccc(F)cc2)C1 (configuration not stated) | inactive: -15.1% | – |
| Cc1ccc(NS(=O)(=O)c2ccc(Br)s2)nc1 | inactive: 17.1% | – |
| CC(C)(C)C1CCC(C(=O)OCC(=O)Nc2ccc3[nH]c(=O)[nH]c3c2)CC1 (configuration not stated) | inactive: 18.5% | – |
| O=C(CSc1nnc(COc2ccccc2)o1)N1CCCCC1 | inactive: 9.77% | – |
| O=C(Nc1nccs1)c1cc2c(s1)CCCCC2 | – | active: 7.08 µM |
| CCOC(=O)N1CCN(S(=O)(=O)c2ccc3c(c2)SCC(=O)N3)CC1 | inactive: 8.48% | – |
| Cc1ccc2[nH]c3c(N4CCc5ccccc5C4)ncnc3c2c1 | inactive: 30.2% | – |
| O=C(CCNC(=O)c1ccccc1)Nc1ccc(Cl)c(S(=O)(=O)N2CCCCC2)c1 | inactive: 3.88% | – |
| O=C(COC(=O)c1ccccc1NS(=O)(=O)c1ccc(Cl)cc1)NCc1ccccc1 | inactive: -11.8% | – |
| O=C(Cn1cc2c(n1)CCCCC2)Nc1ccccc1Cl | inactive: 24.5% | – |
| Cc1cccc(N2CCN(c3ccc(N4C(=O)CCCC4=O)cc3[N+](=O)[O-])CC2)c1C | inactive: 29% | – |
| CS(=O)(=O)Nc1ccc(C(=O)Nc2ccc(S(=O)(=O)Nc3nccs3)cc2)cc1 | inactive: -1.06% | – |
| COc1cc(/C=C(\C#N)c2nc3ccccc3[nH]2)ccc1OC(=O)c1ccco1 | inactive: -6.57% | – |
| O=C(NCCCNc1ccc(C(F)(F)F)cc1[N+](=O)[O-])c1ccc(F)cc1 | inactive: -1.39% | – |
| C/C(=N\NC(=O)c1ccncc1)c1cc2ccccc2o1 | inactive: -0.153% | – |
| CC(C)Cc1ccc(CN2CCCC(NC(=O)CCN3CCOCC3)C2)cc1 (configuration not stated) | inactive: 16.9% | – |
| O=C(CN1CCN(c2ccccc2O)CC1)NNC(=O)c1ccc(Cl)cc1 | inactive: -3.47% | – |
| CCc1nc2c(OCC(=O)c3ccc(Cl)cc3Cl)cccn2c1N(C=O)Cc1ccc(OC)cc1 | inactive: 9.71% | – |
| Cc1cnc(CN(C)Cc2c(C(=O)N3CCCCCCC3)nc3ccc(Cl)cn23)[nH]1 | inactive: 10.8% | – |
| COc1cccc(N2CCN(CC(=O)Nc3ccc(SC(F)F)cc3)CC2)c1 | inactive: 11.3% | – |
| CC(C)(C)c1cc(NC(=O)Nc2ccc(Br)cc2Cl)no1 | inactive: 12.1% | – |
| COc1cccc(CNC(=O)COC(=O)c2c(NC(C)=O)sc(C)c2C)c1 | inactive: -55.1% | – |

| SMILES | growth rescue (activation) | Potency |
| --- | --- | --- |
| COc1ccc(/C=C(/NC(=O)c2ccc(OC)c(OC)c2)C(=O)NCCCn2ccnc2)cc1 | inactive: 7.39% | – |
| COc1ccc(NC(=O)C2CCC2)cc1S(=O)(=O)Nc1cc(C)ccc1Br | inactive: 16% | – |
| COCCCN1C(=O)c2ccc(C(=O)OCC(=O)NCCc3ccccc3)cc2C1=O | inactive: 12.5% | – |
| CCOc1ccc(N2C(=O)c3ccc(C(=O)OCC(=O)N(CC)C4CCS(=O)(=O)C4)cc3C2=O)cc1 (configuration not stated) | inactive: 15% | – |
| CCn1cc(C(=O)N2CCN(c3ccccn3)CC2)c(=O)c2cc(S(=O)(=O)N3CCC(C)CC3)ccc21 | inactive: 10.6% | – |
| N#Cc1cn(CCOC(=O)c2cccc(C(F)(F)F)c2)c(=O)[nH]c1=O | inactive: -5.4% | – |
| CC(=O)C1=C(O)C(=O)N(Cc2ccco2)C1c1ccccc1F (configuration not stated) | inactive: -7.47% | – |
| NS(=O)(=O)c1cccc(NC(=O)c2cc(=O)c3ccccc3o2)c1 | inactive: 3.78% | – |
| Nc1nc(-c2cccnc2)nn1C(=O)c1ccc(Cl)cc1 | inactive: 1.38% | – |
| CN1CCN(c2ccc(NC(=O)c3ccc(C#N)cc3F)cc2Cl)CC1 | inactive: 2.62% | – |
| CCCCCCC(=O)Oc1cccc(N2C(=O)C3CCCCC3C2=O)c1 (configuration not stated) | inactive: 10.9% | – |
| CC(=O)c1cccc(NC(=O)CCS(=O)(=O)c2ccc(Br)s2)c1 | inactive: -3.93% | – |
| CCCN(CCC)C(=O)C1CC(=O)OC12CCCCC2 (configuration not stated) | inactive: -10.9% | – |
| COc1ccc(OC)c(CN2CCN(Cc3cc(=O)oc4cc(O)ccc34)CC2)c1 | inactive: -7.42% | – |
| CN(Cc1ccccc1)Cc1nc2scc(-c3ccccc3)c2c(=O)[nH]1 | inactive: 14.7% | – |
| COCCn1c(SCC(=O)Nc2nc(C)cs2)nnc1C(C)C | inactive: 1.21% | – |
| CCc1nnc(NC(=O)CN2CCN(c3ccccc3F)CC2)s1 | inactive: 2.44% | – |
| O=C1/C(=C/c2cccs2)CCC1C1CCCC1 (configuration not stated) | inactive: 6% | – |
| COc1ccccc1N(CC(=O)NCCN1CCOCC1)S(=O)(=O)c1ccc(C)cc1 | inactive: -7.59% | – |
| CC[n+]1ccc(C[n+]2ccccc2)c2ccccc21 | inactive: 7.9% | – |
| Cc1ccc(CNS(=O)(=O)c2ccc(-n3cnnn3)c(C)c2)cc1 | inactive: -1.36% | – |
| CSc1cccc(NC(=O)C2C3C=CC4(O3)C2C(=O)N(CCN2CCOCC2)C4C(=O)NC2CCCCC2)c1 (configuration not stated) | inactive: 1.75% | – |

| SMILES | growth rescue (activation) | Potency |
| --- | --- | --- |
| CCn1c2ccc(F)cc2c2nnc(SCCN3CCCCC3)nc21 | inactive: 3.41% | – |
| O=C(CN(C(=O)CCC(=O)Nc1nccs1)c1ccc2c(c1)OCO2)NCc1ccccc1 | inactive: -8.63% | – |
| CCOc1cc(/C=C2\C(=O)N(CCc3ccc(OC)c(OC)c3)C(C)=C2C(=O)OC)ccc1O | inactive: 26.3% | – |
| CC(C)NC(=O)COC(=O)c1cccc(NS(=O)(=O)/C=C/c2ccccc2)c1 | inactive: 19.5% | – |
| COc1ccc2nc(/C=N/NC(=O)[C@H](CCSC)NC(=O)OC(C)(C)C)ccc2c1 | inactive: 23.3% | – |
| Cc1ccccc1-c1cnc(C(O)c2ccc(Cl)c(F)c2)[nH]1 (configuration not stated) | inactive: 3.49% | – |
| CC1S/C(=N/N=C/c2cccs2)NC1=O (configuration not stated) | inactive: 7.5% | – |
| COc1ccccc1C1c2c(C)nn(-c3ccccc3)c2NC(=O)C1NC(=O)c1ccccc1 (configuration not stated) | inactive: 18.6% | – |
| O=C(CN(C(=O)c1csnn1)c1cccc(F)c1)NCc1ccc2c(c1)OCO2 | inactive: -0.88% | – |
| COc1cc(/C=N/NC(=O)c2ccccn2)ccc1OC(=O)c1ccc(Br)cc1 | inactive: 12.7% | – |
| CC1(C)Cc2c(cnn2-c2ccc(F)cc2)C(NC(=O)CCn2cncn2)C1 (configuration not stated) | inactive: 13% | – |
| O=C(N/N=C/c1coc2ccccc2c1=O)c1ccc(Cl)cc1 | inactive: 3.33% | – |
| O=C(COCC(=O)NCc1ccccc1)NCc1ccccc1 | inactive: 6.46% | – |
| N#C/C(=C/c1ccc(CNS(=O)(=O)c2ccccc2)o1)C(=O)NCc1ccccc1 | inactive: 12.1% | – |
| CCOCCCNc1ccc(N2C(=O)C3CCCCC3C2=O)cc1[N+](=O)[O-] (configuration not stated) | inactive: 21.9% | – |
| COC(=O)c1ccc(N=NN2CCOCC2)cc1 | inactive: 24.8% | – |
| O=C(CNC(=O)C1COc2ccccc2O1)Nc1ccc(F)c(F)c1 (configuration not stated) | inactive: 18.9% | – |
| O=C(Nc1ccc2c(c1)OCO2)c1cc(C2CCCCN2C(=O)c2ccccc2)on1 (configuration not stated) | inactive: 11.3% | – |
| COc1ccc(CCNC(=O)Cn2nnc3ccccc3c2=O)cc1 | inactive: -16% | – |
| CC1CN(c2nc(-c3ccccc3)nnc2-c2ccccc2)CC(C)O1 (configuration not stated) | – | active: 12.6 µM |
| NC(=S)N/N=C\c1c(OCc2ccccc2Cl)ccc2ccccc12 | inactive: -1.68% | – |
| CSc1nc2c(c(C(F)(F)F)n1)CC(C)CC2 (configuration not stated) | inactive: -28.2% | – |

| SMILES | growth rescue (activation) | Potency |
| --- | --- | --- |
| COc1ccccc1C(=O)N1CCN(C(=O)Cc2ccccc2)CC1 | inactive: 4.72% | – |
| O=C(CCc1ccccc1)N1CCN(c2ccc(F)cc2)CC1 | inactive: 7.56% | – |
| Nc1nc(SCC(=O)c2c(N)n(Cc3ccccc3)c(=O)[nH]c2=O)n[nH]1 | inactive: 24.6% | – |
| COc1cc2cc(C#N)c(SCC(=O)Nc3cc(C)on3)nc2cc1OC | inactive: -12.6% | – |
| CCOc1ccc(N2CC(C(=O)NC3CCSC3=O)CC2=O)cc1 (configuration not stated) | inactive: 11% | – |
| Cc1ccc(N2CC(C(=O)Nc3ccc(Cl)cc3Cl)CC2=O)cc1 (configuration not stated) | inactive: 9.15% | – |
| N#CCN1CCN(CC(=O)c2ccc(Br)cc2)CC1 | inactive: -3.53% | – |
| O=c1oc2cc(O)c(Cl)cc2c2ccccc12 | inactive: 28.1% | – |
| COc1ccc(/C=N/N2CCN(C3c4ccccc4-c4ccccc43)CC2)cc1O | inactive: 13% | – |
| CCCCCNC(=O)c1ccc2c(=O)n(CCCOCC)c(=S)[nH]c2c1 | inactive: 17.5% | – |
| COc1ccc(-c2ccc(C(=O)Nc3ccc(C(C)C)cc3)c3occc23)c(C)c1 | inactive: 3.21% | – |
| CC1(C)CC(=O)C=C(Nc2ccc(C(=O)O)c(O)c2)C1 | inactive: -9.85% | – |
| COc1cc(S(=O)(=O)NC2CCCC2)ccc1-n1cnnn1 | inactive: -0.716% | – |
| O=S(=O)(c1ccc(Cl)cc1)c1cnc2ccccc2n1 | inactive: -3.54% | – |
| COc1cc(Cl)ccc1OC1(C)CCN(Cc2cccn2-c2nccs2)C1 (configuration not stated) | inactive: 14.4% | – |
| NC(=O)c1sc2nc(-c3cccnc3)ccc2c1N | inactive: -9.55% | – |
| COc1ccc2nc(NC(=O)Nc3ccccc3OC)sc2c1 | inactive: -8.61% | – |
| O=C(O)CCC(=O)N1CCN(Cc2ccc3c(c2)OCO3)CC1 | inactive: 9.26% | – |
| COc1cccc(NC(=O)C2CCCN(c3nnc(-n4c(C)ccc4C)s3)C2)c1 (configuration not stated) | inactive: 1.49% | – |
| NC(=O)c1ccsc1NC(=O)CCS(=O)(=O)c1ccc(Cl)cc1 | inactive: 38.4% | – |
| Cn1ncc2c(NNC(=O)c3ccccc3Cl)ncnc21 | inactive: 2.48% | – |
| Cc1ccc(C(=O)N2CCN(Cc3ccc4c(c3)OCO4)CC2)cc1[N+](=O)[O-] | inactive: 12.8% | – |

| SMILES | growth rescue (activation) | Potency |
| --- | --- | --- |
| COc1ccc(CNc2nc(-c3ccco3)nn2C(=O)c2ccccc2Cl)cc1 | inactive: 13.9% | – |
| CCCN1C(=O)c2ccccc2NC1c1ccc(Br)cc1 (configuration not stated) | inactive: -11.2% | – |
| COc1cc(OC)cc(-c2nnc(SCC(=O)Nc3cccc(C(=O)O)c3)s2)c1 | inactive: 4.75% | – |
| CCOC(=O)C1CCN(C(=O)c2ccc(CNS(=O)(=O)c3ccc(C)cc3)cc2)CC1 | inactive: 1.72% | – |
| COc1cccc(C(=O)N2CCC(C(=O)N3CCN(C)CC3)CC2)c1 | inactive: -6.64% | – |
| COc1ccc(/C=C2\N=C(c3ccccc3)N(c3ccc(C(=O)O)cc3)C2=O)cc1OC | inactive: 28.9% | – |
| N#CCOc1ccccc1/C=C/c1nc2ccccc2c(=O)[nH]1 | inactive: -23.1% | – |
| COCCNC(=O)Cc1ccc(F)cc1 | inactive: 6.43% | – |
| C=CCNCC(O)COc1ccc(C(C)=O)cc1OC (configuration not stated) | inactive: -7.15% | – |
| COc1ccc(NC(=O)/C(C#N)=C/c2ccc(Sc3nncn3C)c([N+](=O)[O-])c2)cc1 | inactive: -17.8% | – |
| CCc1c(C)sc(NC(NC(C)=O)(C(=O)OC)C(F)(F)F)c1C#N (configuration not stated) | inactive: -12.2% | – |
| Cc1ccc(S(=O)(=O)NC(C)c2ccccc2)cc1[N+](=O)[O-] (configuration not stated) | inactive: 6.68% | – |
| O=C(COc1ccc(/C=N/NC(=O)c2ccccc2Br)cc1)Nc1ccccc1 | inactive: 4.49% | – |
| COc1cccc(NC(=O)Cc2nnc(SCC(=O)NC3=NCCS3)n2C)c1 | inactive: -16.4% | – |
| CCN(C(=O)COC(=O)c1ccccc1NC(=O)c1ccco1)C1CCS(=O)(=O)C1 (configuration not stated) | inactive: -6.59% | – |
| Cc1cc(N/N=C/c2ccc(Cl)cc2)nc(NCc2ccccc2)n1 | inactive: 15.5% | – |
| Cc1cccc(C(=O)Nc2cccnc2Cl)c1 | inactive: 12.4% | – |
| COc1ncc(-c2cccc3nccn23)c(OC)n1 | inactive: -2.15% | – |
| CNC(=O)c1cccc(NC(=O)C(C)c2ccc3cc(OC)ccc3c2)c1 (configuration not stated) | inactive: 14.4% | – |
